Hit rate of the full screen: of about 210,000 compounds, about 5,900 (2.8%) were called active. The inconclusive results got no clear call from the source; some entries with a clear call stand among them for comparison. Calls come from the whole dose curve; as a rule, active = well fitted activation curve with a large enough effect; inconclusive = small, poorly fitted or top-dose-only effect; inactive = no such curve, though single readings can be large or run the other way. Potencies beside an inconclusive call are fits to weak or partial responses and may not hold up.
Test: qHTS Assay for Enhancers of SMN2 Splice Variant Expression; note: nearly all actives have a fitted effect of over 55% in size; for activity change, positive = activation: % of control where 0% means no effect
Details: HEK293 SMN2-luciferase splicing reporter, luminescence, 30-36 h; activity change, positive = activation: at 46.1 µM (top of the series)
In short: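 HEK293 cells carry an SMN2 […]–luciferase reporter in which exon 7 inclusion puts luciferase in frame. Cells were plated 10-12 h before compound addition, then incubated 30-36 h at 37C. ONE-Glo luminescence was read; sodium butyrate at 4.5 mM final served as control.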
Potency is the fitted concentration of half-maximal effect; tags give direction and shape of the fitted curve.

SMILES | Potency | activity change, positive = activation
Cc1coc(NC(=O)CSc2nc(-c3ccc(Cl)cc3)cc(C(F)(F)F)c2C#N)n1 | inconclusive: 12.6 µM [activator, partial curve, poor fit] | 
Cc1ccc(NC(=O)c2ocnc2C)cc1Cl | active: 14.1 µM | 
Cc1ccccc1CN1CCNC1=O | inconclusive: 20 µM [activator, partial curve, poor fit] | 
CNC(=S)Nc1ccc(Nc2ccccc2)cc1 | inconclusive: 2 µM [activator, full curve, poor fit] | 
CN1C(=O)/C(=C/C=C2\SCCN2C)N(C)C1=S | inconclusive: 35.5 µM [activator, single point] | 
O=C(Cn1c(=O)oc2ccccc21)Nc1nc(-c2ccc(Br)cc2)cs1 | inconclusive: 0.0251 µM [activator, full curve] | 
CCCCCCCN1C2=NCCCN2c2ccccc21 |  | inactive: -15.8%
COc1ccc(S(C)(=O)=O)cc1S(C)(=O)=O | inconclusive: 25.1 µM [activator, partial curve, poor fit] | 
O=C(CSc1ccc(-c2ccccc2)nn1)c1ccccc1 | inconclusive: 17.8 µM [activator, partial curve, poor fit] | 
CCc1ccc(C(=O)NC(=S)Nc2ccc3c(c2)OCCO3)cc1 | active: 11.2 µM | 
Cc1sc2c(c1C)c(=O)nc1n2Cc2ccccc2-1 | inconclusive: 2 µM [activator, partial curve] | 
CC(C)(C)c1ccc(S(=O)(=O)c2cn(CC(=O)Nc3ccccc3)c3ccccc3c2=O)cc1 |  | inactive: 3.16%
COc1cc(SC)ccc1C(=O)Nc1ccccc1 | inconclusive: 17.8 µM [activator, single point] | 
COc1ccc(OC)c(NC(=O)[C@@H]2CCCN2C(=O)c2cccs2)c1 | active: 5.62 µM | 
CCN1CCN(C(=O)Nc2ccccc2OC)CC1 | inconclusive: 6.31 µM [activator, full curve] | 
Cc1c(C)c2ccc(OCC(=O)N(C)C)c(C)c2oc1=O | inconclusive: 10 µM [activator, partial curve] | 
O=C(Nc1ccc(Cl)cc1C(=O)NCc1cccnc1)c1ccco1 | inconclusive: 5.62 µM [activator, single point] | 
CC1=NC(C(F)(F)F)(C(F)(F)F)C(C#N)=C(C)N1 |  | inactive: 2.51%
CCNC(=S)NNC(=O)c1cc(-c2cccc(C)c2)nc2ccccc12 | inconclusive: 12.6 µM [activator, partial curve] | 
COc1cccc2cc(-c3csc(CCn4nc(C)cc4C)n3)c(=O)oc12 |  | inactive: -34.7%
Oc1ccc(Br)cc1-c1cc(-c2ccc(Cl)cc2)n[nH]1 | inconclusive: 5.62 µM [activator, partial curve] | 
Cn1cccc1CC(=O)N/N=C/C=C/c1ccco1 | inconclusive: 7.08 µM [activator, full curve, poor fit] | 
Cc1ccc(/C(N)=N/OC(=O)c2ccc(F)cc2)cc1 | inconclusive: 28.2 µM [activator, single point] | 
COc1ccc(NC(=O)c2cc3nc(-c4ccc(Cl)c(Cl)c4)cc(C(F)(F)F)n3n2)c(OC)c1 |  | inactive: 3.53%
Cc1cc(=O)n2nc(N3CCCC(C(=O)NC(C)c4ccccc4)C3)sc2n1 (stereo not drawn) | inconclusive: 20 µM [activator, single point] | 

SMILES | Potency | activity change, positive = activation
O=C(CC1CCCC1)Nc1nc2ccccc2[nH]1 | active: 12.6 µM | 
CCC1CCCCN1C(=O)CSc1nnc(-c2cccs2)o1 (stereo not drawn) | inconclusive: 17.8 µM [activator, partial curve, poor fit] | 
CCC(=O)N1CCc2cc(Br)cc(S(=O)(=O)N3CCC(C(=O)Nc4ccccc4CC)CC3)c21 |  | inactive: 16.5%
CCCn1c(-c2ccc(F)cc2)nc2c(N3CCN(CCn4ccnc4)CC3)nc(C)nc21 |  | inactive: -10.6%
Cc1ccc(-c2nc3cc(Cl)ccc3o2)cc1NC(=O)c1cc([N+](=O)[O-])ccc1N1CCOCC1 |  | inactive: -4.75%
COc1ccc2nc(NC(=O)Nc3ccccc3)sc2c1 | active: 0.891 µM | 
CC(=O)Oc1ccc2cc(-c3nc4ccccc4n3C)c(=O)oc2c1 | inconclusive: 14.1 µM [activator, single point] | 
CCOC(=O)N1CCN(C(=O)c2nc3ccccc3s2)CC1 | inconclusive: 0.01 µM [activator, full curve] | 
COc1cc(C(=O)NCc2nnc(SCC(=O)N3CCCc4ccccc43)o2)cc(OC)c1OC |  | inactive: -17.3%
Cc1cc(/C=N/NC(=O)c2ccc(O)cc2)c(C)n1C1CC1 |  | inactive: -0.893%
Cc1nc2ccccn2c1C(=O)N/N=C/c1ccc2c(c1)OCO2 | inconclusive: 8.91 µM [activator, partial curve] | 
COc1ccccc1CNC(=O)c1ccc(Br)o1 |  | inactive: -24.7%
O=C(NCc1cccs1)c1noc2c1CCCC2 | inconclusive: 3.98 µM [activator, full curve, poor fit] | 
CC(=O)Oc1ccc(C(=O)Cc2ccc3ccccc3n2)c(O)c1C | inconclusive: 28.2 µM [activator, single point] | 
CCCn1c(C)cc(C(=O)CN2C(=O)c3cccc(N)c3C2=O)c1C | inconclusive: 3.16 µM [activator, single point] | 
O=C(Nc1ccc(Br)cc1)N1CCCCC1 | inconclusive: 14.1 µM [activator, single point] | 
CNC(=S)N/N=C(\C)c1ccc2c(c1)OCCO2 | inconclusive: 12.6 µM [activator, single point] | 
c1ccc(OCc2nc(-c3cccs3)no2)cc1 | inconclusive: 28.2 µM [activator, single point] | 
O=C(CSc1ccc(-c2ccco2)nn1)N1CCCCCC1 | inconclusive: 11.2 µM [activator, single point] | 
CCOc1ccc(-c2nc(SCC(=O)c3ccccc3)n[nH]2)cc1 | inconclusive: 12.6 µM [activator, single point] | 
Brc1cccc(-c2nnc(CN3CCN(c4ccccn4)CC3)o2)c1 |  | inactive: 3.73%
CC1(OC(=O)c2ccc(Cl)nc2)C(=O)C=c2cc(-c3ccsc3)ncc2=C1OC(=O)C1CCCC1 (stereo not drawn) |  | inactive: -0.822% [at 9.22 µM]
COc1ccc(-c2noc(N(c3cccc(Cl)c3)c3nc(-c4ccc(OC)c(OC)c4)no3)n2)cc1OC |  | inactive: -14.9%
CCCOc1ccc(C2C(C(=O)c3ccco3)=C(O)C(=O)N2CCN2CCOCC2)cc1OC (stereo not drawn) | inconclusive: 0.126 µM [activator, full curve, poor fit] | 
Cc1sc(NC(=O)C2C3CCC(O3)C2C(=O)O)nc1-c1ccc(CC(C)C)cc1 (stereo not drawn) |  | inactive: 20.5%

SMILES | Potency | activity change, positive = activation
COc1cc(/C=N/NC(=S)Nc2cccc(S(=O)(=O)N(C)C)c2)cc(OC)c1O |  | inactive: -8.36%
COC(=O)C1=C(C)N(c2cccc3ccccc23)C(=O)C1 | inconclusive: 3.98 µM [activator, partial curve] | 
COc1cc(-c2nc(-c3ccccc3)c(-c3cccs3)[nH]2)cc(OC)c1OC | inconclusive: 6.31 µM [activator, partial curve, poor fit] | 
CCN=c1scc(C)n1/N=C/c1cc(Br)c(O)c(Br)c1 | inconclusive: 35.5 µM [activator, single point] | 
Cc1cc(C)cc(NC(=S)NN)c1 |  | inactive: -5.17%
COc1cc(C=O)ccc1OCc1ccccc1Br | inconclusive: 35.5 µM [activator, single point] | 
CSc1nc2ccccc2n1CC(=O)Nc1cc(C(F)(F)F)ccc1N1CCOCC1 |  | inactive: -4.74%
Cc1ccc(Oc2nnc(-c3ccc(C)cc3)c3ccccc23)cc1 | inconclusive: 15.8 µM [activator, single point] | 
Cc1nc2nc(SCC(=O)NCCc3ccccc3)nn2c(C)c1Cc1c(F)cccc1Cl |  | inactive: 2.65%
Nc1c(C(=O)c2ccc(Br)s2)oc2ccccc12 | inconclusive: 15.8 µM [activator, single point] | 
COc1ccc(N2C(=O)c3ccccc3NC2c2ccc(OC)c(CSc3ccccn3)c2)cc1 (stereo not drawn) | inconclusive: 3.16 µM [activator, full curve] | 
CCOc1ccc(N(CC(=O)NC(C(C)C)C(C)C)S(=O)(=O)c2ccc(OC)c(OC)c2)cc1 |  | inactive: -16.2%
CCOC(=O)C(NC(=O)Nc1ccc(F)cc1)(OCC)C(F)(F)F (stereo not drawn) | inconclusive: 0.005 µM [activator, full curve, poor fit] | 
O=C(NCc1nc2ccccc2[nH]1)c1cccc(S(=O)(=O)N2CCCCC2)c1 | inconclusive: 5.62 µM [activator, full curve] | 
COCCCNC(=O)COc1ccc(S(=O)(=O)Nc2ccccc2)cc1 | inconclusive: 5.62 µM [activator, partial curve] | 
COc1cc(C=O)ccc1OCc1cccc(Br)c1 | active: 14.1 µM | 
Cc1nc(NC(=O)Nc2ccc(Cl)cc2)sc1C | inconclusive: 11.2 µM [activator, partial curve] | 
Cc1occc1C(=O)Nc1cc(C(F)(F)F)ccc1Cl | active: 25.1 µM | 
Cc1ccc2nc3c(nc2c1)-c1ccccc1C3=O | inconclusive: 20 µM [activator, single point] | 
Cc1ccc(NC(=S)N2CCCC(O)C2)cc1 (stereo not drawn) | inconclusive: 35.5 µM [activator, single point] | 
Cc1c(C(=O)Oc2cccc3ccccc23)cnn1-c1ccccc1 | inconclusive: 3.98 µM [activator, single point] | 
CCN(C(=O)COC(=O)c1cc(-c2ccc3cc(OC)ccc3c2)nc2ccccc12)C1CCS(=O)(=O)C1 (stereo not drawn) | inconclusive: 1.26 µM [activator, single point] | 
CSc1ccccc1C(=O)Nc1cccc(C)c1 |  | inactive: -12.2%
